Among all 410,000 compounds or so, about 5,000 (1.2%) were called active. The inconclusive results got no clear call from the source; some entries with a clear call stand among them for comparison. Calls follow the shape of the dose curve; as a rule, active = well fitted inhibition curve with a large enough effect; inconclusive = small, poorly fitted or top-dose-only effect; inactive = no such curve, though single readings can be large or run the other way. Where the call is inconclusive, the potency comes from a doubtful curve fit.
assay: qHTS for Inhibitors of TGF-b; conditions: HepG2 CAGA-GFP TGF-b/SMAD3 reporter, GFP fluorescence, 18 h, TGF-beta stimulated, 500 pg/mL final; series mostly up to 46.1 µM; also: nearly all actives have a fitted effect of over 65% in size
Outline: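 GFP signal (ex488/em500-530) from TGF-beta-stimulated HEPG2 CAGA-GFP cells, 500 pg/mL final, 18 h at 37 degrees C in DMEM plus 1% FBS, normalized to unstimulated and DMSO-stimulated controls.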
Potency is read from the fitted curve at half-maximal effect; tags tell the direction and shape of the fitted curve.

Compound	Potency
COc1cccc(NC(=O)CSCn2nnc3c(=O)[nH]c(Cc4ccc(F)cc4)nc32)c1	inactive
Cc1oc2ccc(OCC(N)=O)cc2c1C(=O)OC(C)C	inactive
O=C(CN(CCc1ccccc1)S(=O)(=O)c1ccccc1)NCc1ccc(Cl)cc1	inconclusive: 25.1 µM [inhibitor, single point]
CCOC(=O)CCCNC(=O)CSc1nc2ccc(OCC)cc2[nH]1	inconclusive: 5.62 µM [inhibitor, partial curve, poor fit]
CCOc1ccc(/C=C/C(=O)c2ccccc2)cc1	inconclusive: 35.5 µM [inhibitor, single point]
COc1ccc(CN=C2NN=C(c3cccc(OC)c3)CS2)cc1	inactive
CC(C)CNC(=O)/C=C/C=C/CCCC/C=C/c1ccc2c(c1)OCO2	inconclusive: 0.0891 µM [inhibitor, full curve, poor fit]
CCN(CC)C(=O)Cn1c(=O)cc(C)c2c(C)nn(C)c21	inactive
CCOCCCNC(=O)CN1C(=O)/C(=C/c2ccccc2)Sc2ccccc21	inconclusive: 6.31 µM [inhibitor, partial curve]
Cc1ccccc1Cn1ccc(NC(=O)c2nc3ncccn3n2)n1	inconclusive: 12.6 µM [inhibitor, partial curve]
O=C(NCCNC(=O)Oc1cccc2ccccc12)Oc1cccc2ccccc12	inconclusive: 17.8 µM [inhibitor, partial curve, poor fit]
Cc1ccc(OCCn2c(NC(=O)c3ccco3)nc3ccccc32)cc1	inconclusive: 11.2 µM [inhibitor, partial curve, poor fit]
Cc1nc(-c2cccc(S(=O)(=O)N3CCC(C)CC3)c2)cs1	inconclusive: 3.55 µM [inhibitor, partial curve, poor fit]
CCOC(=O)c1ccc(S(=O)(=O)N2CCC(C(=O)Nc3nnc(C)o3)CC2)cc1	inactive
Cc1c(C(=O)N2CCCCCC2)nnn1-c1nonc1N	inconclusive: 0.112 µM [inhibitor, full curve, poor fit]
CC(=O)N1CCc2c(sc(NC(=O)C3CCCN3S(=O)(=O)c3cccs3)c2C(N)=O)C1 (stereo not drawn)	inactive
CC(C)Oc1cc(F)ccc1-c1cc(C(=O)NCc2ccccc2)[nH]n1	inactive
Cc1cc2c(cc1C)CSC(c1ccc3ccccc3c1O)SC2	inactive
CCOC(=O)C1=C(CN2CCC(C)CC2)NC(=O)NC1c1ccc(Cl)cc1 (stereo not drawn)	inconclusive: 12.6 µM [inhibitor, partial curve]
COc1ccc(-n2nc3c(c2NC(=O)c2ccccc2)CS(=O)(=O)C3)cc1	inactive
COc1ccc(CN2CCNC(=O)C2CC(=O)N(C)CCC2CCOCC2)c(OC)c1 (stereo not drawn)	inactive
COc1ccc(NC(=O)c2oc3c(c2C)-c2nn(Cc4ccccc4Cl)cc2CC3)cc1OC	inconclusive: 0.794 µM [inhibitor, full curve, poor fit]
C=Cc1ccc(CSc2nnc(C)n3c2cc2occc23)cc1	inconclusive: 6.31 µM [inhibitor, partial curve, poor fit]

Compound	Potency
CN(NC(=O)c1cccc(Cl)c1)c1nc(-c2ccccc2)nnc1C(F)(F)F	inconclusive: 3.16 µM [inhibitor, single point]
C=CCOc1c(Cl)cc(C(=S)N2CCCC2)cc1OCC	inactive
CCOC(=O)c1ccc(NC(=O)N2CCN(CCc3ccccc3)CC2)cc1	inactive
CCn1c(C(C)NC(C)=O)nc2ccccc21 (stereo not drawn)	inactive
CC1Nc2ncnc(N3CCc4ccccc4C3)c2N(Cc2ccc(Cl)cc2)C1=O (stereo not drawn)	inconclusive: 8.91 µM [inhibitor, single point]
COc1cccc(-c2nc(CS(=O)(=O)CC(=O)NCCc3ccc(OC)c(OC)c3)c(C)o2)c1	inconclusive: 35.5 µM [inhibitor, single point]
Cc1ccc(C(=O)Nc2nc(-c3nnn(-c4cccc(Cl)c4C)c3C)ns2)cc1C	inconclusive: 0.112 µM [inhibitor, full curve, poor fit]
O=C(Nc1ccc(F)cc1)C1CCCN(c2ncnc3c2nc2n3CCCCC2)C1 (stereo not drawn)	inconclusive: 35.5 µM [inhibitor, single point]
O=C(Nc1ccc(N2CCCC2)c(Cl)c1)c1ccc([N+](=O)[O-])o1	inconclusive: 17.8 µM [inhibitor, single point]
COc1ncnc2c1ncn2CCCNc1ccc(C)c(C)c1	inactive
COc1ccc(C(=O)Nc2ccc(C)c(S(=O)(=O)N3CCCCCC3)c2)cc1	inconclusive: 14.1 µM [inhibitor, partial curve, poor fit]
NS(=O)(=O)c1ccc(NC(=O)CN2CCN(Cc3ccccc3)CC2)cc1	inconclusive: 3.16 µM [inhibitor, single point]
Cc1c(C(=O)Nc2ccc(F)c(F)c2)oc2ccc(S(=O)(=O)N(C)C3CCCCC3)cc12	inconclusive: 2.82 µM [inhibitor, partial curve, poor fit]
CCOC(=O)c1[nH]c(C)c(CCC(=O)NC(C)c2ccccc2)c1C (stereo not drawn)	inactive
CCN(CC)CCn1c2c(c(SCC(=O)Nc3cccc(C(F)(F)F)c3)nc1=O)CCC2	inactive
CCOc1ccc(-c2cn3c(n2)sc2cc(C(=O)NCCCN(CC)CC)ccc23)cc1	inconclusive: 35.5 µM [inhibitor, single point]
Cc1cccc(CNC(=O)Cc2ccc(NC(=O)N3CCCCc4ccccc43)cc2)c1	inconclusive: 11.2 µM [inhibitor, partial curve]
Cn1c(C(=O)N2CCCC(C(=O)NCc3cccs3)C2)cc2sccc21 (stereo not drawn)	inconclusive: 35.5 µM [inhibitor, partial curve, poor fit]
COc1ccc(NC(=O)C2CCCCN2N)cc1OC (stereo not drawn)	inactive
CCOc1ccc(-c2nn(-c3ccccc3)cc2C2NC(=O)NC(C)=C2C(=O)OC(C)C)cc1C (stereo not drawn)	inconclusive: 35.5 µM [inhibitor, single point]
CC(C)(C)c1ccc(C(=O)O/N=C(\N)c2ccccc2)cc1	inactive
O=C(NCCc1ccccc1)C1CCCN1C(=O)Nc1ccccc1 (stereo not drawn)	inactive
CCOC(=O)c1cc(-c2ccccc2)n(CCC(=O)Nc2ccc(C)cc2Cl)c1C	inconclusive: 2.51 µM [inhibitor, partial curve, poor fit]

Compound	Potency
Cn1c2ccccc2c(=O)c2cc(C#Cc3ccsc3)ccc21	inconclusive: 0.501 µM [inhibitor, full curve, poor fit]
CCCn1c(SCC(=O)Nc2ccccc2Oc2ccccc2)n[nH]c1=O	inconclusive: 35.5 µM [inhibitor, single point]
Cc1ccc2c(c1)C(=O)C(=O)N2Cc1ccc(OC(C)C)cc1	active: 10 µM
CCCC(=O)Nc1ccc(C(=O)NNC(=S)NC(=O)c2cccs2)cc1	inconclusive: 12.6 µM [inhibitor, partial curve]
CC(C)(C)NC(=O)COC(=O)c1c2c(nc3ccccc13)CCC2	inactive
O=C(NCCCN1CCN(c2ccc(F)cc2)CC1)c1sc2ncccc2c1-n1cccc1	inconclusive: 22.4 µM [inhibitor, single point]
CCCC(=NCCc1c(C)[nH]c2ccccc12)C1=C(O)CC(c2ccccc2)CC1=O (stereo not drawn)	inconclusive: 35.5 µM [inhibitor, single point]
Cc1ccc(C(=O)Cn2cccn2)cc1	inconclusive: 35.5 µM [inhibitor, single point]
O=C(NCCCn1ccnc1)c1ccc(-c2cccc(Cl)c2Cl)o1	inconclusive: 25.1 µM [inhibitor, single point]
COc1cc(/C=N/N2CCN(C3c4ccccc4-c4ccccc43)CC2)cc(OC)c1OC	inactive
CCOc1ccc(-n2c(SCC(=O)Nc3ccccc3C)n[nH]c2=O)cc1	inconclusive: 35.5 µM [inhibitor, single point]
C[C@@]12C(=O)N(c3cccc(F)c3)C(=O)N1[C@H](c1ccc(F)cc1)[C@@H]1C(=O)N(C3CCCCC3)C(=O)[C@@H]12	inconclusive: 10 µM [inhibitor, partial curve, poor fit]
Cc1ccc2c(c1)CC(C)N2S(=O)(=O)c1nnc(NC(=O)c2ccccc2F)s1 (stereo not drawn)	inconclusive: 35.5 µM [inhibitor, partial curve, poor fit]
Cc1c(C(=O)N/N=C/c2cccs2)nnn1-c1nonc1N	inconclusive: 6.31 µM [inhibitor, single point]
Cc1ccc(S(=O)(=O)Nc2cnc3ccccc3c2)cc1	inconclusive: 25.1 µM [inhibitor, single point]
Cc1ccc(/C=C2\NC(=S)NC2=O)cc1[N+](=O)[O-]	inactive
CCCc1c(C(=O)N/N=C(\C)CCc2ccccc2)nnn1-c1nonc1N	inconclusive: 35.5 µM [inhibitor, single point]
Cc1cccc(Cn2c(SCc3ccc(C(=O)N4CCC(C)CC4)cc3)nc3ccncc32)c1	inconclusive: 11.2 µM [inhibitor, partial curve, poor fit]
Cc1sc2nc(CN3CCCCC3)nc(N3CCN(C(=O)c4ccco4)CC3)c2c1C	inactive
Cc1[nH]n(-c2ccccc2)c(=O)c1/C=N/N1C(=O)c2cccc3cccc(c23)C1=O	inconclusive: 28.2 µM [inhibitor, single point]
CCOC(=O)[C@H]1[C@H]2COc3cc(OC)ccc3[C@@H]2N2C(=O)CN(CC3CCCO3)C(=O)[C@@]12C (stereo partly drawn)	inconclusive: 5.62 µM [inhibitor, single point]
CCn1c(Cc2c(C)[nH]c3ccccc23)nnc1SCC(=O)NCc1ccco1	inconclusive: 6.31 µM [inhibitor, partial curve, poor fit]
